Reference: paper PMC6212790
The other results are listed elsewhere or left out. At the low end of the ranking, values are background and their order means little.

These sequences were tested against T1, GST-Rok-C97-191 (UniProt O34857) (assay: protein binding microarray). Conditions: Rok is a gene silencer of Bacillus subtilis; high values mean tight binding; most listed sequences are background and not binding sites; double strand, one strand shown.
T1 sequence: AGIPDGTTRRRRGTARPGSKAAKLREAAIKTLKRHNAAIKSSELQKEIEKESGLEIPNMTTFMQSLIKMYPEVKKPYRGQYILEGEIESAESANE
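Note: rank score from −0.5 (least bound) to 0.5 (best bound).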

Sequence	binding signal [E-score]
GGGGTGAA	0.0222
CCCGCGGC	-0.229
ACACTCTA	-0.0518
AAAATGTC	0.0401
ATCAATAG	0.219
GTGTGTGA	-0.228
TGTTAAAA	-0.0158
AGCAATAC	0.171
AGCTGAGC	-0.202
CAGAATTC	0.175
CTCTTGAC	-0.129
ACTAGGAA	0.187
CTTTCCTA	0.114
CCGAAATA	0.224
ACTAGGTC	0.0775
GCGTCACA	-0.207
ATTAGCGC	0.208
AGTATATG	0.264
CCACGAGC	-0.218
AGAGGCAC	-0.177
AAGTTCCT	-0.112
GAATCCCC	-0.29
CGGTGGCC	-0.149
CTTTCTCA	-0.12
CCTATTGA	-0.0399

Sequence	binding signal [E-score]
CGGTATAA	0.272
AAAAGAGA	0.147
GTCAGTTA	0.104
CTTGTAAC	0.158
AGTTCTTA	0.00493
CGTCGACC	-0.209
CCTATAGG	-0.00329
AACCTTCA	-0.0626
AGACTTTA	0.0153
TATGCTGA	-0.00907
GATCACAC	0.00567
GCGAGGCC	-0.33
GGGCTGAC	-0.156
GGGTAGAA	0.384
GTCACGGA	-0.0778
CACTGATG	-0.206
CACGACGG	-0.104
AGCGAGAC	-0.159
ATCTCCGC	-0.132
AAACCATC	0.00757
CGTTCGAC	-0.192
GTACGGGA	0.104
ATAGATAC	0.357
CGAAGGCG	-0.0617
ACGGTGCA	-0.0507

Sequence	binding signal [E-score]
TATCGCCA	0.161
ACCTAAAC	-0.0158
CAGTAGGA	0.144
ACCACTGG	-0.195
GGTAACCA	0.00545
AACCATCC	-0.0571
GAGGGTTA	-0.131
AGGCCGAT	-0.0986
CTATCGAA	0.206
GAAGTAAA	0.254
AATCTTAC	0.171
ATCTTCCG	-0.00237
AATGATGA	0.00727
AGTAAGAA	0.297
CACGCAGC	-0.287
TCAGGGAA	-0.18
GCAGTTCC	-0.0226
CACGGCTA	0.0275
CACAGGAA	-0.0787
CCCTCATA	-0.021
CTCAGAGA	-0.0632
CGCGTCGC	-0.188
CAATGACG	-0.168
GACGTACC	0.00655
ACGTGCGC	-0.256

Sequence	binding signal [E-score]
ATTGGGGC	-0.128
CACCGGCC	-0.242
AATATGCA	0.245
CCCTAGCC	-0.283
GCAGTAAA	0.138
ATTGCTCG	0.0332
TAGAACCA	0.0922
AATCAGCA	-0.0277
AGCTTCCG	-0.0997
AGAAGCAT	0.071
AGCTGGAG	-0.0549
GCTTTCGA	0.0291
ATACCATC	0.0328
CTGATCAC	-0.00299
GGTGCCAC	-0.197
CGCGAAGC	-0.239
ACGATCGC	0.0318
CCAAGTGC	-0.191
CAGTTGGC	-0.0639
CTAAGAAG	0.00211
TACACTGA	-0.0753
AAAGCATG	-0.0182
ATAATGAT	0.177
ACCAAGAA	0.0343
GTCAGATA	0.115

Sequence	binding signal [E-score]
GGACATTA	-0.121
GCCATAAA	-0.106
ATGCATAC	0.0643
TATGACCA	0.132
TCTTAGCA	0.0509
ATGCTGAG	-0.233
CGATTGGC	-0.0407
GAATGTAC	0.304
CGTCCTCA	-0.0889
ACTAAGAT	0.236
GGCTAGAA	-0.162
ACTCCGCC	-0.183
CGAGGTGA	-0.0936
GATCATTA	0.287
AATGTGCA	0.0594
GGTCATGA	-0.0841
GGTCCGAA	0.0575
CAGTTGCA	-0.0955
ATGAAAGC	-0.0998
GCCGTGAC	-0.151
CCTACGAC	-0.0164
CCGCCATA	-0.152
GCAAAAAA	-0.0414
CCTACTTA	0.195
CGATACTC	-0.0843

Sequence	binding signal [E-score]
AAACCTTT	0.12
AAAGGTAG	0.316
CAGTCGCC	-0.232
GTGCATGA	-0.0244
ATCTTACC	0.2
CAGACCGG	0.0497
ATTATAGG	0.226
CCTTGTTC	-0.069
GACTTCAC	-0.114
ACGGCTCC	-0.23
ACATCTGG	-0.233
ACCATAGT	0.21
AACTCATA	0.0551
CTTCGGCC	-0.0974
CGTTGGTA	0.174
ATATGTCG	0.22
CCACAATC	-0.0214
CTCAAAGA	-0.0568
GCGCGCGC	0.00259
CTGATTAC	0.0104
TGGATGAA	-0.115
AAAGGGGC	-0.316
GCTCTGAC	-0.296
GCGTCTGA	-0.208
AAGGTCGG	-0.209

Sequence	binding signal [E-score]
CGAACGCC	-0.36
CGCTCGAC	-0.142
CGGCAAGA	0.0761
AGGCCCCC	-0.385
CAATGTCA	0.0875
CCAGGATA	0.0439
AACGATGC	-0.0905
GACGACAA	-0.0358
GATTCGGC	-0.286
CAGGGACA	-0.257
CTACGTGA	-0.0981
GAGTCATC	-0.185
AGGGTCAC	-0.127
GCATACCC	-0.0893
GAGCCGCA	-0.281
GTTGGGTA	0.124
ACATAACG	0.154
CTCTTGTC	-0.25
AAGAGAGT	-0.095
ACCCCAGG	-0.284
CCTGTAGC	0.0103
AGGGTTAT	-0.176
CTCCACTC	-0.216
CCACTTTC	-0.152
AACCTCAC	-0.124

Sequence	binding signal [E-score]
CAGGAGAC	-0.181
CCAGCCGG	-0.207
CAAGATCG	0.091
ATAAACTC	0.173
CCACATGC	-0.0305
AAGCGTTG	-0.156
ACCTTAGC	-0.0479
GCATGGGA	-0.112
AGGCATTG	-0.0865
GGTGCAGA	-0.162
CCCCTTCA	-0.197
AAGATAAG	0.0425
ATGATTTC	0.0114
CGCTACCA	0.169
ACATATGG	0.132
CTACAGCA	0.13
GATAGAAC	0.289
AAAATCCG	-0.0518
GCGTATAC	-0.124
ACGAGCAT	0.0539
ATTGGCCG	-0.00492
ACAGCCTA	-0.0107
ACCTAGCG	0.0206
GACAATGC	-0.329
AAAGGTTG	-0.0321

Sequence	binding signal [E-score]
ACTATCAG	0.0802
ATGGTGTG	-0.0562
AAGTCGAC	0.0287
ACCACGAT	-0.103
AGTGTCAC	0.0262
GCGGAAGA	-0.192
AGAGACCG	-0.188
GGATCTAC	0.259
AACACACT	0.199
ATAGTTCA	0.265
AGATGACC	-0.241
GCGCTCAA	-0.26
CAGGGAAG	-0.22
ATTTGAAG	-0.0999
CTAGTTAA	0.327
CCACTCCG	-0.132
ACCCTTAG	-0.0473
CTACTCAG	0.0557
ATTATACA	0.333
